The chains are these.
T1: UNK ZnF1-3 (human, UniProt Q9C0B0 31-174)
T1 sequence: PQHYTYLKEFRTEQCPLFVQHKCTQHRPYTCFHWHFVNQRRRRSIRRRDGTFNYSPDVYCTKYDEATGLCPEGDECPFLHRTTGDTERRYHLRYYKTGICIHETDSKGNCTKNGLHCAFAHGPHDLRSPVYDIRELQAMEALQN

B1: chr1:155330963:155330964:-_ENSMUSG00000042699_ENSMUST00000042141|perfect_dup|motif|central (ssRNA)
RNA: GGGAGUUCUACAGUCCGACGAUCACCUUCCACCUGAACCUCACACAUGAAUUUCUGCCUGUUUUUGUUCCCCACUGCUCGGAUUUCAUAGGAUGGGGUCAUCUUCCUUUUGCCACACCAGGCAUACAGAAAAUUUUUAACGUCCAACAGAGGAUUGAGCAUCA
B2: chr8:79514634:79514635:+_ENSG00000171033_ENST00000352966|hu_hu|motif|central (ssRNA)
RNA: GGGAGUUCUACAGUCCGACGAUCACUGUGUUUUAAAAAAGGGUGUUCUAUCCUGUGUACACCACCACAGUAUGGAAAACGGAAAUGAAAAGACAGCCCUUUUAAAAAUGAGUGGUAUAAAAAUUCACAGUAAUGUACAUCAUUCAACAGAGGAUUGAGCAUCA
B3: chr6:51416610:51416611:-_ENSMUSG00000004980_ENSMUST00000090002|perfect_dup|motif|central (ssRNA)
RNA: GGGAGUUCUACAGUCCGACGAUCCCUAUCAGUAAUUAUCUCAAUGGUAUCAAUUUUUCCAUAUUCCUCAAAGUAAUCUCGGAGGUGAUGUUCCUCAGUAUCUUCUUUAAUUCCGCCAACAAACAGCUUCUUCACAGUUACAUGCAACAGAGGAUUGAGCAUCA
B4: chr11:121178941:121178942:+_ENSG00000109929_ENST00000392789|hu_mus|FALSE|FALSE (ssRNA)
RNA: GGGAGUUCUACAGUCCGACGAUCCUUGAAAAACCAAAAAAAGAAAAAAGAAAAAAAAAUGACACUCACCAAGAUCUUCAGUUAAAUAAUCUCCUAUCUAGACUGAAUUAUGGAAGAGCUGACAUUUAAAAAAAAUACCAUUUACAACAGAGGAUUGAGCAUCA
B5: 192275893_192278888_3021_CDS_ENSG00000128641_ENST00000304164|human|control|control (ssRNA)
RNA: GGGAGUUCUACAGUCCGACGAUCAAUUUUGUUCACGACUUCAGCAAUGAUGAUCUUUUCUUCAAUGGCAUCUUUGAGUUUCUUAUACUUGGGGUUCUUGUUGAUUUCCAGGUAAGCCCCUUGGAAUGGUUGCCCAACACUAGACAACAGAGGAUUGAGCAUCA
B6: 118575273_118577313_527_CDS_ENSG00000088205_ENST00000263239|human|control|control (ssRNA)
RNA: GGGAGUUCUACAGUCCGACGAUCCUUCUCCACAUUAUUUUCUGUUUCUUUAGUAGUCUCGGCACUUUCUUCUUCAGAUUUCCCUUUGUUUUCAGUUUUUGCUUUUUUCGUAUCAGGCUCAGCAUCAUUCACCAUUUUUCUCUUCAACAGAGGAUUGAGCAUCA
B7: chr1:60041781:60041782:+_ENSMUSG00000041040_ENSMUST00000036540|mus_hu|mus_mus_mus_hu_False|38_38 (ssRNA)
RNA: GGGAGUUCUACAGUCCGACGAUCAAGUUUACAAUAGUAAAGUAAAUGCAGUAGUGGCAAAUUUUCUUUUAUUUUCCUUCACAAAAGAAAAUCUUUAGAUCUCAGUUCUAGUCUUGGACAUAGUGAAAGCUAUAAAUUCUGACUCAACAGAGGAUUGAGCAUCA
B8: chr2:152857951:152857952:+_ENSMUSG00000042631_ENSMUST00000037235|mus_mus|FALSE|FALSE (ssRNA)
RNA: GGGAGUUCUACAGUCCGACGAUCCUGACCCUGCAGGUAGUAGGAGGCCGCCAGCCACAGGUCGGUGGCGCCGUCGGAGAAGAACACGAGCAGCGCGCACAGCACCCAGCAGCAGUCCCGCAGCUCGUAGCGUGGCCCCGGGCACAACAGAGGAUUGAGCAUCA
B9: chr1:109605286:109605287:-_ENSG00000197780_ENST00000461096|hu_mus|hu_hu_hu_mus_True|1_1 (ssRNA)
RNA: GGGAGUUCUACAGUCCGACGAUCAAGUUUCAGAGUAACAUUCAGUAACCUCUUUAAAUGCAAUUAUCCUUAUUAUAAGCUAAGCAGAAUAAUAAUUUAAUACCGUAAGUGAACUACACACAAAGCCUGAACCGCGAAACUACACAACAGAGGAUUGAGCAUCA
B10: 30169689_30169809_76_3pUTR_ENSG00000139514_ENST00000380752|human|control|control (ssRNA)
RNA: GGGAGUUCUACAGUCCGACGAUCGGAGGCUGCGGUUAGCGGGAGCCCGCGGCCGCGUGCGCGCCUGCCAGGUAGUUGACCCGCUGCUCACACCUGCCUGCGCGGACUGAAUGGGCGCCGAGGGCUGGCGGGUUCCGGCGCCAGCAACAGAGGAUUGAGCAUCA
B11: chr8:98817645:98817646:+_ENSG00000104341_ENST00000445593|hu_hu|FALSE|FALSE (ssRNA)
RNA: GGGAGUUCUACAGUCCGACGAUCAAUGCACAUGUUGGCAUCAUCCAUGAACUCAAAGUCACCUCCCAGUUCAGAACUUGAAAAGUUAUACUGAUCCGGAUCAGCCAGGGCACUCAAUAAAAUCAACAGUACCACAGCAUUGAUCAACAGAGGAUUGAGCAUCA
B12: chr17:64801638:64801639:+_ENSG00000154229_ENST00000413366|hu_mus|hu_hu_hu_mus_False|8_68 (ssRNA)
RNA: GGGAGUUCUACAGUCCGACGAUCUAUAUAUAUAUAUACAUAUGUACACAUAUAUAGUAAAACCCUAAUCUAUCACGUAAAGUAGCCAUUCAUUUUUAAAAUUACAUCUACAUUAAAAAAUUAAUAUAUCUGAUACAGUGCCAGCAACAGAGGAUUGAGCAUCA
B13: 14004324_14004444_1713_CDS_ENSMUSG00000024420_ENSMUST00000025288|mouse|control|control (ssRNA)
RNA: GGGAGUUCUACAGUCCGACGAUCGAACGCAUUGCUGUCCUUGGCCGCGGGAUUGGCAAACCCAUGAGAACAUCGGAUGUGCUCCUGAAGGGUGUUGAGGUCAUUGACAACUUCGGAACAGAAGUUGCACUGGUAAACAAUGGCCAACAGAGGAUUGAGCAUCA
B14: chr1:201932794:201932795:+_ENSG00000134375_ENST00000367287|hu_hu|FALSE|FALSE (ssRNA)
RNA: GGGAGUUCUACAGUCCGACGAUCUAAGGCACCACUUGUGAUGGAGUUCCAGGGAUCUUCCUUUCCUCUGACUUGAACCAUACUACAGUCAAUCAUGGAAAACAGCCCUCCCCAAACUGCAAAGCUACCUCCUAACUGUGGAGCCAACAGAGGAUUGAGCAUCA

The results in this text go back to paper PMC12136788.

The other results are listed elsewhere or left out.

The assay addresses T1, UNK ZnF1-3. Briefly: nsRBNS (natural sequence RNA bind-n-seq); RBNS binding buffer (assumed for nsRBNS): 25 mM Tris pH 7.5, 150 mM KCl, 3 mM MgCl2, 0.01% Triton X-100, 500 ug/ml BSA, 20 U/ml SUPERase-In, 4 C; UNK is unkempt and MSI1 is Musashi-1; names of the RNAs are library labels; protein concentration not given here; high values mean tight binding.
In turn, B1 had a binding signal of 0.93 enrichment R.

B2 came in with a binding signal of 1.18 enrichment R.

On to B3, for which the binding signal turned out to be 1.4 enrichment R.

B4: the binding signal was found to be 3.08 enrichment R.

Turning to B5, the binding signal was determined as 0.426 enrichment R.

In turn, B6 gave a binding signal of 0.176 enrichment R.

The molecule B7 had a binding signal of 0.517 enrichment R.

B8 returned a binding signal of 1.12 enrichment R.

Molecule B9 came in with a binding signal of 0.711 enrichment R.

As for B10, the binding signal stood at 0.389 enrichment R.

For B11, the binding signal was found to be 1.76 enrichment R.

The molecule B12 had a binding signal of 1.36 enrichment R.

The molecule B13 displayed a binding signal of 1.08 enrichment R.

Regarding B14, the binding signal came to 1.33 enrichment R.
